Results on 52 molecules are retold here after ChEMBL document CHEMBL4888484, “Replenishing the malaria drug discovery pipeline: Screening and hit evaluation of the MMV Hit Generation Library 1 (HGL1) against asexual blood stage Plasmodium falciparum ,using a nano luciferase reporter read-out” (2022).

What is called % Inhibition is the relative decrease from the control value, in per cent.

Hit rate of the full screen: of about 150,000 compounds, about 540 (0.36%) showed an effect of 50% or more. Some of the results follow.

The subject of the test is Plasmodium falciparum. Kind of test: Primary screen in NF54 nanoGlo assay, in single point, at 2uM, 72h; a lower Z score goes with more inhibition. The following applies: timepoint 72 hour. The class given is functional, Erythrocyte.
As to `CO[C@H]1CN(C2CCN(C(=O)c3cccc4[nH]ccc34)CC2)C12CCOCC2`, the “% Inhibition” value is given as -9% and the Z score is recorded as 1.45.
`C=Cn1cc(CNC(c2ccccc2)C2CCCO2)cn1` (centres undefined): the “% Inhibition” value is -4% and the Z score was 0.55.
With `Cc1ccc(Nc2nc3ccccc3nc2C(=O)OC(C)C)c(C)c1`, the “% Inhibition” value is given as -14% and the Z score was 1.61.
Turning to `CCCOc1ccc([C@@H](N)CC(=O)OC)cc1OC`, the “% Inhibition” value was -12% and the Z score was 1.66.
With `C[C@@H](C1CC1)n1cc(NC(=O)N2CCC(c3ccn(C)n3)CC2)cn1`, the “% Inhibition” value is 0% and the Z score is 0.01.
Regarding `Cc1cc(Br)cnc1-c1noc([C@@H](C)c2cnn(C)c2)n1`, the “% Inhibition” value is listed as -11% and the Z score is given as 1.67.
With `O=C1CCCN1CCc1nc(Cc2cccs2)no1`, the “% Inhibition” value is reported as -13% and the Z score was 2.51.
For the molecule `CC(=O)Nc1c(C)ccc(NC(=O)c2cnc(C3CC3)s2)c1C`, the “% Inhibition” value was -14% and the Z score turned out to be 2.12.
As to `Cc1ccc(CNC(=O)[C@H]2CCCN(c3nc4c(s3)c(C)nn4-c3ccc(C)cc3)C2)cc1`, the “% Inhibition” value was determined as 7% and the Z score was -0.91.
For `CC(c1nc(C2CC2)no1)N1CCC(N(C)C(=O)OC(C)(C)C)C1` (centres undefined), in that order: -6% and 0.88.
For the molecule `COc1ccccc1CNC(=O)CN1C[C@@H]2CC[C@H]1CN(C(=O)N(C)C)C2`, the “% Inhibition” value is recorded as -6% and the Z score came out at 1.07.
The matching figures for `C[C@@H](c1nccs1)N(C)C(=O)CCc1c[nH]c2ccccc12`: 1% and -0.17.
As for `COc1cc(NC2CCN(C(=O)CCc3c(C)nn(C)c3C)CC2)cc(OC)c1`, the “% Inhibition” value was -9% and the Z score worked out at 1.52.
As for `Cc1ccsc1CN(C)Cc1cc(C#CCO)cs1`, the “% Inhibition” value was determined as 6% and the Z score was -1.15.
Consider `Cc1ccc(N(C)Cc2cnn(-c3ccccc3)c2)nn1`, for which the “% Inhibition” value is on record as -7% and the Z score was 0.6.
`O=C(CCc1cc(O)no1)ON1C(=O)CCC1=O`: the “% Inhibition” value is -16% and the Z score was 2.02.
Regarding `Cc1cc(C#N)nc(N2CCN(C(=O)c3cscn3)[C@@H](C)C2)n1`, the “% Inhibition” value is -3% and the Z score amounted to 0.44.
Take `COc1ccc(CCN(Cc2nc(C(=O)N3CCN(c4ccccc4C)CC3)cs2)Cc2ccccc2F)cc1OC`: the “% Inhibition” value turned out to be 0% and the Z score came to 0.01.
`CC(C)(C)c1ccc(NC(=O)N2CCCN(CC(F)F)CC2)nn1`: the “% Inhibition” value turned out to be 2% and the Z score is -0.27.
For `O=C(Nc1cc(F)ccc1Cl)N1C[C@H]2C[C@@H](C1)[C@@H]1CCCC(=O)N1C2`, in that order: 0% and -0.07.
Consider `O=C(CCc1cncc(F)c1)N1CCN(C2CC2)CC1`, for which the “% Inhibition” value is given as -6% and the Z score was found to be 1.19.
For `O[C@@H](Cn1nnc2c1CCCC2)c1cccc(Br)c1`, in that order: -6% and 1.19.
For `Cc1ccc(CNC(=O)[C@]2(C)Cn3cnc(C(=O)NCc4ccco4)c3C(=O)N2C2CC2)cc1`, in that order: -24% and 2.4.
`O=C(Cc1c(F)cccc1Cl)N1CCc2n[nH]c(=O)n2CC1`: the “% Inhibition” value amounted to 7% and the Z score is recorded as -0.87.
In the case of `Cc1cc(C(=O)CN2C(=O)N[C@]3(CCOC3)C2=O)c(C)[nH]1`, the “% Inhibition” value is -2% and the Z score was determined as 0.44.
For `Cn1ncc2c(N)nc(N3CCCN(S(C)(=O)=O)CC3)nc21`, in that order: -11% and 2.04.
Regarding `CCCCN(Cc1cccn1Cc1ccc(Br)cc1)C(=O)CN(CC(C)C)C(=O)Nc1ccccc1CC`, the “% Inhibition” value is listed as -6% and the Z score came out at 0.97.
As for `Cc1cccc2cc(C(=O)N[C@H]3CC[C@@H](N4CCN(C)CC4)CC3)sc12`, the “% Inhibition” value is on record as -13% and the Z score is on record as 1.44.
Regarding `OCc1nc(NCc2ccc3c(c2)OCCO3)ccc1Cl`, the “% Inhibition” value was -4% and the Z score amounted to 0.68.
`CCn1nc(C)c(CCN(C)c2ccc(C(=O)O)cc2NS(=O)(=O)c2c(C)cc(C)cc2C)c1C`: the “% Inhibition” value was -11% and the Z score was 1.12.
Regarding `Cc1ccc(NC[C@H]2CCN(Cc3nc(C)c(C)o3)C2)nc1`, the “% Inhibition” value is recorded as -16% and the Z score is recorded as 2.25.
For `COc1ccc(C(=O)N2CCC3(CCC(=O)N(Cc4ccccn4)C3)CC2)o1`, in that order: -7% and 1.24.
The matching figures for `Cc1cc(C)c(N2CC[C@H](Nc3cnn(CC(=O)NCCO)c3)C2=O)c(C)c1`: -12% and 1.51.
Turning to `Cc1ccsc1CCNC(=O)N1CCNC(=O)C1`, the “% Inhibition” value is reported as -11% and the Z score is 1.45.
Turning to `Cc1ccc(OCC(=O)NC2CCOCC2)c(Cl)c1`, the “% Inhibition” value is reported as -12% and the Z score stood at 1.36.
Turning to `N#Cc1c(F)cccc1N1CCC(CC(=O)N2CCCC2)CC1`, the “% Inhibition” value is reported as -6% and the Z score came out at 0.77.
`COc1nc(N2CCN(c3ccc(Cl)cc3)CC2)ncc1C(=O)NCCN1CCOCC1`: the “% Inhibition” value is listed as -11% and the Z score came to 1.31.
In the case of `Cc1ccc(CCC(=O)N2CCC3(CCNCC3)C2)cc1`, the “% Inhibition” value is reported as -7% and the Z score came out at 1.29.
With `CCOC1CC(NC(=O)c2csnn2)C12CCCC2` (centres undefined), the “% Inhibition” value came out at 3% and the Z score is on record as -0.43.
As to `CC(=O)Nc1nc(C)c(S(=O)(=O)N2CCC(C)CC2)s1`, the “% Inhibition” value is -14% and the Z score worked out at 1.52.
As for `Cn1ccc(NC(=O)CN2CCC3(CCC(=O)N(C4CCCC4)C3)CC2)n1`, the “% Inhibition” value is 2% and the Z score is listed as -0.2.
Regarding `Cc1ccc(S(=O)(=O)NC[C@H]2O[C@@H](CO)[C@@H](O)[C@H]2N2CCN(c3cccc(C(F)(F)F)c3)CC2)cc1`, the “% Inhibition” value is -9% and the Z score worked out at 1.21.
As for `Cc1ccc2ncc(-c3noc([C@H]4CCOC4)n3)n2c1`, the “% Inhibition” value was -15% and the Z score turned out to be 2.87.
Consider `O=C(NC(Cc1ccncc1)[C@H]1C[C@@H](O)C1)c1csc2c1CCCC2` (some centres undefined), for which the “% Inhibition” value is given as -2% and the Z score amounted to 0.24.
For `CC(C)(O)C#Cc1cccc(C(=O)NC[C@H]2CCN(Cc3ccccc3F)C2)c1`, in that order: -14% and 1.45.
Regarding `Cc1ccccc1OCCNC(=O)c1ccc(CN2CCOCC2)cc1`, the “% Inhibition” value is on record as -5% and the Z score was determined as 0.85.
`O=C(Nc1ccc2[nH]c(=O)[nH]c2c1)C1CC2C=CC1C2` (centres undefined): the “% Inhibition” value is reported as -4% and the Z score is listed as 0.67.
The matching figures for `Cc1ccc(C(=O)NC[C@@H]2CCCN3CCCC[C@H]23)n1C(F)F`: -6% and 0.92.
For `COc1ccc(-c2nc3cc(C)ccc3cc2CN2CCC[C@H]2C(N)=O)cc1`, the “% Inhibition” value is on record as -24% and the Z score turned out to be 2.81.
As for `CC[C@H](C)NC(=O)CN1CCN(C(=O)c2c(O)nc3ccccc3c2C)CC1`, the “% Inhibition” value amounted to 1% and the Z score is given as -0.12.
For `CC(C)C[C@H](NC(=O)Nc1ccccc1)c1nnc2ccccn12`, the “% Inhibition” value was determined as 0% and the Z score was 0.01.
For `Cc1ccc(N(C(=O)c2cccc(Br)c2)C2(C(=O)Nc3c(C)cccc3C)CCCC2)cc1`, the “% Inhibition” value is on record as 7% and the Z score is reported as -1.03.
